{
  "source": "PubChem BioAssay AID485344",
  "about": "(National Center for Advancing Translational Sciences (NCATS), 2010)",
  "note": "Values joined by “and” are separate entries in the source; they are usually repeats but may differ in a detail not shown here. Identical values can stand only once. Out of some 340,000 compounds screened, about 6,900 (2%) were called active. Cut-off read from the data, not from the text of the source: active = inhibition above about 30%; inactive = below that, where a call was filed. Only a part is listed here, and it is no random draw. Entries without a call were filed so in the source.",
  "data": [
    {"target": "D(2) dopamine receptor (Homo sapiens) (UniProt P14416)", "sequence (P14416 whole entry, looked up)": "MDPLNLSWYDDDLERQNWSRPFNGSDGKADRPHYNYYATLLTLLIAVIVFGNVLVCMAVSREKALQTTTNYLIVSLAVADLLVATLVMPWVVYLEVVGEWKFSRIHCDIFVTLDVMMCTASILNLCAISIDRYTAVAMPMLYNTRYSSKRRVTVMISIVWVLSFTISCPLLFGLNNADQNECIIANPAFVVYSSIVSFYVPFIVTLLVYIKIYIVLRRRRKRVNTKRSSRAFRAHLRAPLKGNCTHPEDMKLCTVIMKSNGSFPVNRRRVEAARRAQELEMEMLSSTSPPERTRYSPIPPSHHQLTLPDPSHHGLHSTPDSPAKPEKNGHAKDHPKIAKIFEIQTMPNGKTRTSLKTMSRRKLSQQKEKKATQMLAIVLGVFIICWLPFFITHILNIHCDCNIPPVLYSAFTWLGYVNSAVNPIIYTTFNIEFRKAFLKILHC", "test": "HTS Assay for Allosteric Antagonists of the Human D2 Dopamine Receptor: Primary Screen for Antagonists; note: 0% is about no effect", "conditions": "HEK293 TREx D2 cells, calcium flux, dopamine EC80; at 10 µM; stronger effect = higher value", "procedure,_shortened": "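Dopamine at EC80 is the agonist stimulus; test compounds precede it by 180 s. Calcium flux read kinetically in a force-coupled, inducible HEK293 T-REx D2 cell line.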", "values": [
      {"molecule": "Cc1cc(C)cc(-n2c(SCC(=O)NCc3ccc(F)cc3)nc3c([nH]c4ccccc43)c2=O)c1", "inhibition": "-3.62%"},
      {"molecule": "COc1cc(NC(=O)CSc2nc(-c3ccccc3)no2)cc(OC)c1", "inhibition": "4.22%"},
      {"molecule": "COc1ccccc1NC(=O)c1c(C)cc(C)nc1SCC(=O)Nc1ccc(C)cc1", "inhibition": "-6.05%"},
      {"molecule": "COc1ccc(NC(=O)Cn2nnc(C(=O)NCc3ccco3)c2N)c(OC)c1", "inhibition": "8.09%"},
      {"molecule": "Cc1ccc(N2CCN(C(=O)c3cn(C)c4ccc(S(=O)(=O)N5CCCC5)cc4c3=O)CC2C)cc1", "note": "(stereo unspecified)", "inhibition": "-20.1%"},
      {"molecule": "Cc1cc(Nc2cccc(Br)c2)n2c(nc3ccccc32)c1C#N", "inhibition": "-9.86%"},
      {"molecule": "CC(=O)Nc1ccc(S(=O)(=O)NCC2CCC(C(=O)NCc3ccccc3)CC2)cc1", "note": "(stereo unspecified)", "inhibition": "-28.3%"},
      {"molecule": "CCOc1cc(C(Nc2cc(C)ccn2)c2ccc3cccnc3c2O)ccc1OC", "note": "(stereo unspecified)", "inhibition": "14.1%"},
      {"molecule": "CN(CCOc1ccccc1)CCOc1ccccc1", "inhibition": "active: 37.1%"},
      {"molecule": "O=C(CSc1nc2c([nH]c3ccccc32)c(=O)n1-c1ccc(Cl)cc1)NC1CCCCC1", "inhibition": "-1.71%"},
      {"molecule": "CCc1ccc(NC(=O)N2CCN(Cc3nc4ccc(C)cc4o3)CC2)cc1", "inhibition": "-24.2%"},
      {"molecule": "CCCCNC(=O)Nc1ccc2c(c1)N(C)C(=O)c1ccccc1S2", "inhibition": "21% and active: 46.3%"},
      {"molecule": "CCN(CC)C(=O)CN1C(=O)COc2ccc(S(=O)(=O)N3CCOCC3)cc21", "inhibition": "-6.12%"},
      {"molecule": "COC(=O)C1=C(C)NC(=O)C1(NC(=O)c1ccc(Cl)cc1)C(F)(F)F", "note": "(stereo unspecified)", "inhibition": "-16.2%"},
      {"molecule": "CC1=Nc2cc(C(=O)NCc3ccc(C)cc3)ccc2Sc2ccc(Cl)cc21", "inhibition": "5.53%"},
      {"molecule": "CCN1CCC(N(Cc2cccc(OC)c2)C(=O)Nc2cccc(C)c2C)CC1", "inhibition": "4.72%"},
      {"molecule": "COc1ccc(C2N=C(N)Nc3nc4ccccc4n32)c(OC)c1OC", "note": "(stereo unspecified)", "inhibition": "4.43%"},
      {"molecule": "CCOC(=O)c1sc(NC(=O)C(C)Oc2ccc(OC)cc2)c(C(=O)OCC)c1C", "note": "(stereo unspecified)", "inhibition": "10.5%"},
      {"molecule": "COc1ccc(C(=O)Nc2cc(-c3ccccc3)nn2-c2ccccc2)cc1", "inhibition": "5.09%"},
      {"molecule": "COc1ccc(C)cc1NC(=O)CN1C(=O)COc2ccc(S(=O)(=O)N3CCOCC3)cc21", "inhibition": "18.7%"},
      {"molecule": "CCOC(=O)c1cccc(NC(=O)c2cc3cc4cc(OC)ccc4nc3s2)c1", "inhibition": "-15.4%"},
      {"molecule": "Cc1ccc(NC(=O)COc2ccc(-c3nn(C)c(=O)c4ccccc34)cc2)cc1", "inhibition": "-1.99%"},
      {"molecule": "O=C(COCc1cc(-c2cccs2)on1)Nc1cc(Cl)ccc1O", "inhibition": "9.34%"},
      {"molecule": "Cc1ccc(CNC(=O)C2CCN(S(=O)(=O)Cc3ccccc3)CC2)cc1", "inhibition": "2.69%"},
      {"molecule": "CN(C)c1ccc(CNC(=O)C2CCCN(S(=O)(=O)c3ccc4c(ccn4C)c3)C2)cc1", "note": "(stereo unspecified)", "inhibition": "7.66%"},
      {"molecule": "Cc1ncc(CO)c2c1Oc1nc(-c3ccccc3)nc(SCC(=O)N3CCCCC3)c1C2", "inhibition": "1.79%"},
      {"molecule": "CCN(CC)C(=O)Cn1c(=O)n(Cc2ccc(C(=O)NCc3ccc(C)cc3)cc2)c(=O)c2ccccc21", "inhibition": "9.11%"},
      {"molecule": "Cc1ccn2c(=O)nc(SCC(=O)Nc3cc(C)on3)nc2c1", "inhibition": "active: 41.6%"},
      {"molecule": "CS(=O)(=O)N1CCc2cc(C(=O)Nc3ccc(Cl)c(C(F)(F)F)c3)ccc21", "inhibition": "-8.77%"},
      {"molecule": "Cc1nc2ncnn2c(C)c1CCC(=O)NCCCN1CCN(c2cccc(Cl)c2)CC1", "inhibition": "active: 72.5%"},
      {"molecule": "CCOCCCNC(=O)c1cc2c(=O)n(C)c3ccccc3c2n1C", "inhibition": "2.86%"},
      {"molecule": "Cc1ccc(NC(=O)c2cn3c4c(ccc(Cl)c4c2=O)OC(C)C3)cc1C", "note": "(stereo unspecified)", "inhibition": "9.92%"},
      {"molecule": "O=C(CSc1cccc(C(F)(F)F)c1)Nc1ccc(Cl)cc1Cl", "inhibition": "active: 48.6%"},
      {"molecule": "COc1ccc(NC(=O)Cn2c(=O)n(-c3cccc(C)c3)c(=O)c3c2c2cc(C)ccc2n3C)cc1Cl", "inhibition": "-5.31%"},
      {"molecule": "CCOc1cc2sc(N3CCC(C(=O)Nc4ccccc4C(=O)OC)CC3)nc2cc1Br", "inhibition": "4.13%"},
      {"molecule": "O=C(C1CCC(CNS(=O)(=O)c2ccc(Br)s2)CC1)N1CCN(c2ccccc2Cl)CC1", "note": "(stereo unspecified)", "inhibition": "1.34%"},
      {"molecule": "O=c1oc2ccccc2n1CCCOc1ccccc1Cl", "inhibition": "-5.03%"},
      {"molecule": "COc1cccc(N2CCN(C(=O)CCS(=O)(=O)c3ccc4c(c3)CC(=O)N4C)CC2)c1", "inhibition": "0.851%"},
      {"molecule": "O=C(Cn1c(=O)oc2cc(S(=O)(=O)N3CCCC3)ccc21)NCc1ccc(Cl)cc1", "inhibition": "-2.38%"},
      {"molecule": "COc1cccc(NC(=O)CSc2nc(=O)n(Cc3ccccn3)c3c2CCC3)c1", "inhibition": "14.9%"},
      {"molecule": "O=c1oc2ccc3ccccc3c2cc1-c1nnc(Nc2ccc(Cl)cc2Cl)s1", "inhibition": "8.13%"},
      {"molecule": "COc1ccc(CCNC(=O)c2ccc3c(c2)N=C(C)c2cc(C)ccc2S3)cc1OC", "inhibition": "-15.4%"},
      {"molecule": "CCc1ccc(NC(=O)Cn2c(=O)c(CNc3ccccc3)cc3cc(OC)c(OC)cc32)cc1", "inhibition": "-9.68%"},
      {"molecule": "Cc1cccc(NC(=O)C2CCCN(S(=O)(=O)c3c(C)[nH]c(=O)[nH]c3=O)C2)c1C", "note": "(stereo unspecified)", "inhibition": "3.03%"},
      {"molecule": "COc1ccc(-c2nc3ccccc3o2)cc1NC(=O)C(C)(C)Oc1ccc(Br)cc1", "inhibition": "0.583%"},
      {"molecule": "CC(=O)c1cccc(NC(=O)[C@H](Cc2ccccc2)N2Cc3ccccc3C2=O)c1", "inhibition": "21.2%"},
      {"molecule": "CCC(NC(=O)Nc1ccc(OC)c(OC)c1)c1c(-n2cccc2)sc2c1CCN(C)C2", "note": "(stereo unspecified)", "inhibition": "-4.98%"},
      {"molecule": "COc1ccc(N2CC(NC(=O)C3CC3)CC2=O)cc1", "note": "(stereo unspecified)", "inhibition": "15.8%"},
      {"molecule": "COc1ccccc1C(=O)NCCSc1c(C)[nH]c2ccccc12", "inhibition": "-9.76%"},
      {"molecule": "CC(C)(C)c1ccc(OCC(=O)N/N=C/c2cc(Br)ccc2OC(=O)c2ccco2)cc1", "inhibition": "active: 34%"},
      {"molecule": "CCc1nn2c(=O)cc(COC(=O)c3ccccc3NC(=O)COc3ccc(F)cc3)nc2s1", "inhibition": "-12.4%"},
      {"molecule": "COCCNC(=O)Cn1cnc2sc(C)c(S(=O)(=O)N3CCN(c4ccccc4OC)CC3)c2c1=O", "inhibition": "17.9%"},
      {"molecule": "CCOC(=O)c1[nH]c(C)c(CCC(=O)Nc2cccc(C(F)(F)F)c2)c1C", "inhibition": "5.03%"},
      {"molecule": "CC(CNC(=O)c1nnc(Cc2cccc(F)c2)o1)c1ccccc1", "note": "(stereo unspecified)", "inhibition": "8.11%"},
      {"molecule": "COc1cc(CNCCSc2nnnn2C)ccc1OCc1ccc(F)cc1", "inhibition": "-14.1%"},
      {"molecule": "CCOc1ccc(-n2cc(-c3ccccc3)c3c(NC4CCCCC4)ncnc32)cc1", "inhibition": "11.2%"},
      {"molecule": "Cc1nn(-c2ccccc2)c(OC(=O)c2ccccc2Cl)c1S(=O)(=O)c1ccccc1", "inhibition": "8.11%"},
      {"molecule": "COc1ccc2c(c1)c1c(c(=O)n(-c3cccc(Cl)c3)c(=O)n1CC(=O)NCC1CCCO1)n2C", "note": "(stereo unspecified)", "inhibition": "8.33%"},
      {"molecule": "N#CCC(=N)N1CCN(c2cccc(Cl)c2)CC1", "inhibition": "active: 62.5%"},
      {"molecule": "CCOc1ccc(-c2nnc(SCC(=O)NCc3ccc(C)cc3)nc2-c2ccc(OCC)c(OC)c2)cc1OC", "inhibition": "-16.5%"},
      {"molecule": "CCOc1ccc(NC(=O)CSC2=Nc3ccccc3C3=NC(CCC(=O)NCc4cccs4)C(=O)N23)cc1", "note": "(stereo unspecified)", "inhibition": "-15.8%"}
    ]}
  ]
}
